According to the supplement of paper PMC8728848:
Some of the results follow.

What was measured:
Experiment in all cases: glycan array binding signal (z-score within array); higher = stronger binding
Conditions in all cases: glycan notation: IUPAC condensed, linker removed
[1] = target: Gal(b1-4)GlcNAc(b1-3)Gal(b1-4)GlcNAc(b1-3)[Gal(b1-4)GlcNAc(b1-3)Gal(b1-4)GlcNAc(b1-6)]GalNAc
Method in brief: (§1)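 The binding signal is a Z-score computed within each array. Data were drawn from 3228 arrays in the Consortium for Functional Glycomics database, restricted to those with a known protein sequence. Scores were averaged over arrays of the same protein sequence at different concentrations or buffers, and over linkers, and negative values can be taken as non-binding.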

[2] = target: Gal(b1-4)GlcNAc(b1-3)Gal(b1-4)GlcNAc(b1-6)[Gal(b1-3)]GalNAc
Method in brief: as §1

[3] = target: Gal(b1-4)GlcNAc(b1-3)Gal(b1-4)[Fuc(a1-3)]GlcNAc(b1-3)Gal(b1-4)[Fuc(a1-3)]GlcNAc
Method in brief: as §1

[4] = target: Gal(b1-4)GlcNAc(b1-3)GalNAc
Method in brief: as §1

[5] = target: Gal(b1-4)GlcNAc(b1-3)[Fuc(a1-3)GlcNAc(b1-6)]Gal(b1-4)Glc
Method in brief: as §1

[6] = target: Gal(b1-4)GlcNAc(b1-3)[Gal(b1-4)GlcNAc(b1-6)]Gal(b1-4)GlcNAc
Method in brief: as §1

[7] = target: Gal(b1-4)GlcNAc(b1-3)[GlcNAc(b1-6)]Gal(b1-4)GlcNAc
Method in brief: as §1

[8] = target: Gal(b1-4)GlcNAc(b1-6)Gal(b1-4)GlcNAc
Method in brief: as §1

[9] = target: Gal(b1-4)GlcNAc(b1-6)GalNAc
Method in brief: as §1

[10] = target: Gal(b1-4)GlcNAc(b1-6)[Gal(b1-3)]GalNAc
Method in brief: as §1

[11] = target: Gal(b1-4)GlcNAc(b1-6)[Gal(b1-4)GlcNAc(b1-3)]GalNAc
Method in brief: as §1

Gal(b1-4)GlcNAc6P = target: Gal(b1-4)GlcNAc6P
Method in brief: as §1

Gal(b1-6)Gal = target: Gal(b1-6)Gal
Method in brief: as §1

Gal3S(b1-3)GalNAc = target: Gal3S(b1-3)GalNAc
Method in brief: as §1

Gal3S(b1-3)GlcNAc = target: Gal3S(b1-3)GlcNAc
Method in brief: as §1

[12] = target: Gal3S(b1-3)[Fuc(a1-4)]GlcNAc
Method in brief: as §1

Gal3S(b1-4)Glc = target: Gal3S(b1-4)Glc
Method in brief: as §1

Gal3S(b1-4)Glc6S = target: Gal3S(b1-4)Glc6S
Method in brief: as §1

Gal3S(b1-4)GlcNAc = target: Gal3S(b1-4)GlcNAc
Method in brief: as §1

[13] = target: Gal3S(b1-4)[Fuc(a1-3)]Glc6S
Method in brief: as §1

[14] = target: Gal3S(b1-4)[Fuc(a1-3)]GlcNAc
Method in brief: as §1

[15] = target: Gal3S(b1-4)[Fuc(a1-3)]GlcNAc6S
Method in brief: as §1

Gal3S4S(b1-4)GlcNAc = target: Gal3S4S(b1-4)GlcNAc
Method in brief: as §1

Gal3S6S(b1-4)GlcNAc = target: Gal3S6S(b1-4)GlcNAc
Method in brief: as §1

Gal3S6S(b1-4)GlcNAc6S = target: Gal3S6S(b1-4)GlcNAc6S
Method in brief: as §1

Gal4S(b1-4)GlcNAc = target: Gal4S(b1-4)GlcNAc
Method in brief: as §1

Gal4S6S(b1-4)GlcNAc = target: Gal4S6S(b1-4)GlcNAc
Method in brief: as §1

Gal6P(b1-4)GlcNAc = target: Gal6P(b1-4)GlcNAc
Method in brief: as §1

Gal6S(b1-3)GlcNAc = target: Gal6S(b1-3)GlcNAc
Method in brief: as §1

Gal6S(b1-3)GlcNAc6S = target: Gal6S(b1-3)GlcNAc6S
Method in brief: as §1

Gal6S(b1-4)Glc = target: Gal6S(b1-4)Glc
Method in brief: as §1

Gal6S(b1-4)Glc6S = target: Gal6S(b1-4)Glc6S
Method in brief: as §1

Gal6S(b1-4)GlcNAc = target: Gal6S(b1-4)GlcNAc
Method in brief: as §1

Gal6S(b1-4)GlcNAc6S = target: Gal6S(b1-4)GlcNAc6S
Method in brief: as §1

GalNAc(a1-3)Gal = target: GalNAc(a1-3)Gal
Method in brief: as §1

GalNAc(a1-3)GalNAc = target: GalNAc(a1-3)GalNAc
Method in brief: as §1

[16] = target: GalNAc(a1-3)GalNAc(b1-3)Gal(a1-4)Gal(b1-4)Glc
Method in brief: as §1

B1: Epa1 (Candida glabrata) (protein)
chain: MGSSHHHHHHSSGLVPRGSHMTSSNDISLASKDPTTFPLGCSPDITTPKKGLSMELYSYDFRKKGSYPCWDAAYLDPNYPRTGYKSHRLLAKVDGVTGNINFYYHATKGCTPQLGHLPASYNYPKPLTMTNFTMLLYGYFRPKVTGFHTFTISADDLLFVNFGAGNAFDCCRRDSSADHFGNYQAYAIWGSKTAKDELTVHLDAGVYYPIRLFYNNREYDGALSFTFKTESNENTVSDFSEYFFSLDDTEEGCPGLISYD
glycan array binding signal (z-score) [1]: 0.952
glycan array binding signal (z-score) [2]: 0.939
glycan array binding signal (z-score) [3]: -0.056
glycan array binding signal (z-score) [4]: -0.015
glycan array binding signal (z-score) [5]: -0.128
glycan array binding signal (z-score) [6]: 0.516
glycan array binding signal (z-score) [7]: 0.168
glycan array binding signal (z-score) [8]: 3.12
glycan array binding signal (z-score) [9]: 1.22
glycan array binding signal (z-score) [10]: 4.02
glycan array binding signal (z-score) [11]: 0.922
glycan array binding signal (z-score) (Gal(b1-4)GlcNAc6P): -0.257
glycan array binding signal (z-score) (Gal(b1-6)Gal): 0.429
glycan array binding signal (z-score) (Gal3S(b1-3)GalNAc): -0.317
glycan array binding signal (z-score) (Gal3S(b1-3)GlcNAc): -0.351
glycan array binding signal (z-score) [12]: -0.293
glycan array binding signal (z-score) (Gal3S(b1-4)Glc): -0.295
glycan array binding signal (z-score) (Gal3S(b1-4)Glc6S): -0.272
glycan array binding signal (z-score) (Gal3S(b1-4)GlcNAc): -0.442
glycan array binding signal (z-score) [13]: -0.042
glycan array binding signal (z-score) [14]: -0.314
glycan array binding signal (z-score) [15]: -0.394
glycan array binding signal (z-score) (Gal3S4S(b1-4)GlcNAc): -0.316
glycan array binding signal (z-score) (Gal3S6S(b1-4)GlcNAc): -0.276
glycan array binding signal (z-score) (Gal3S6S(b1-4)GlcNAc6S): -0.197
glycan array binding signal (z-score) (Gal4S(b1-4)GlcNAc): -0.351
glycan array binding signal (z-score) (Gal4S6S(b1-4)GlcNAc): -0.342
glycan array binding signal (z-score) (Gal6P(b1-4)GlcNAc): -0.272
glycan array binding signal (z-score) (Gal6S(b1-3)GlcNAc): -0.081
glycan array binding signal (z-score) (Gal6S(b1-3)GlcNAc6S): -0.014
glycan array binding signal (z-score) (Gal6S(b1-4)Glc): 0.321
glycan array binding signal (z-score) (Gal6S(b1-4)Glc6S): 0.427
glycan array binding signal (z-score) (Gal6S(b1-4)GlcNAc): 0.393
glycan array binding signal (z-score) (Gal6S(b1-4)GlcNAc6S): 0.803
glycan array binding signal (z-score) (GalNAc(a1-3)Gal): -0.273
glycan array binding signal (z-score) (GalNAc(a1-3)GalNAc): -0.265
glycan array binding signal (z-score) [16]: -0.312
